Source: the supplement of paper PMC11417369
± gives the standard deviation of the averaged measurements. Some of the results follow.

system: PfAP2-I AP2 domain 3 (GST-tagged); experiment: gcPBM binding intensity (ln(normalized median fluorescence intensity)); higher = stronger DNA binding
In short: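 GST-fused DNA-binding domains of P. falciparum, expressed in E. coli, were applied at about 25 μg on average for 1 h to an Agilent 4 × 180k array of primer-extended double-stranded 36-bp intergenic genomic probes and negative controls. Binding intensity is the highest Masliner-normalised natural-log median intensity across replicate spots of either probe orientation, measured with Alexa488 anti-GST antibody and a 488 nm scan.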

| Sequence | gcPBM binding intensity (ln) |
| --- | --- |
| CATATAATATTTGAAACTATATATAAATATAAGGTA [TGCATGCA_negctrl_site19] | 7.32 ± 0.39 |
| AATATATTTTTATATTGTACAAAAGAAAAAAAATAT [XGTACX_site1689] | 8.05 ± 0.48 |
| ATTTATTCATAGACAACAAGAAAAAAAAAAAAAATT [CACACA_negctrl_site1168] | 7.54 ± 0.57 |
| AGTTTTCCATGTTAATGTACTTAACAATACCATAAT [XGTACX_site209] | 8.19 ± 0.6 |
| TATATCCATATTGTATGTACACATATAATACCAATG [XGTACX_site7230] | 7.94 ± 0.35 |
| ATATAATGATAATATTGTACATGTTATATTTCAATA [XGTACX_site8645] | 7.66 ± 0.34 |
| ATATATTTAATATTCACACATAATTATTTTTACTCT [CACACA_site5438] | 7.87 ± 0.65 |
| TTGTAATATCTTGTCACACATATATATATATATATA [CACACA_site4937] | 9.38 ± 0.35 |
| TATAGATAAGAATATGCACACATTTTATTTTTTTTT [CACACA_site1982] | 8.6 ± 0.085 |
| TTTTTAATTTATTAAGAAGTAAAGAATAACTCTTTT [TGCATGCA_negctrl_site101] | 7.17 ± 0.35 |
| AAACATTAAAATAACTCACACATTTTTCTAGTCTTC [CACACA_site4612] | 7.53 ± 0.67 |
| TCAAATTACTAAAATACACACATATTATAGATATAT [CACACA_site7233] | 7.46 ± 0.53 |
| TGTATATATAATAAAACACACATTTTTAATGTGCTC [CACACA_site1437] | 7.36 ± 0.46 |
| GTTTTATAAAAAGGCGCACACATATACATAAATATA [CACACA_site1864] | 8.47 ± 0.37 |
| GATAAAGTACTTTATACACACAAATATTTATATATA [CACACA_site3974] | 7.86 ± 0.43 |
| AAAAAGAAAATATATACACACCAAAAAAAAAAAAAA [CACACA_site5698] | 7.84 ± 0.79 |
| TAAATACAAAAATGCACACGAAAAGTAATATATATA [CACACA_site6151] | 8.76 ± 0.71 |
| TAATATGACATAAGGGGTACTATATATATATATATT [XGTACX_site386] | 7.88 ± 0.52 |
| AAACATTTACTATATTGTACTTAAGATCTTATCGTA [XGTACX_site3919] | 7.62 ± 0.57 |
| TATTTTAACATGTTTTCAAAAATAAAACATATAAAT [CACACA_negctrl_site1598] | 7.4 ± 0.35 |
| GAACTTTACAACCCAACACACAAAAAAGAAAAGAAA [CACACA_site1717] | 7.87 ± 0.46 |
| ATATGTTCATTTAAAAGTACTTAATATAACATTTTT [XGTACX_site3332] | 7.6 ± 0.44 |
| AATAGGAAAAGAAAAGCACACACATAAATAAATATA [CACACA_site8062] | 8.14 ± 0.41 |

| Sequence | gcPBM binding intensity (ln) |
| --- | --- |
| ATTGGTGTATGTTTATGTACTTATCACAATTATGAA [XGTACX_site7055] | 7.96 ± 0.37 |
| TATGCTTTGATGAAGACACACATATAGAAGCGTATT [CACACA_site1925] | 7.64 ± 0.59 |
| CGCCCACAGATATATACACACATATATAAATAAATA [CACACA_site6877] | 7.83 ± 0.49 |
| TACTTTTATAAAAATTGTACAAAAAAAAAAAAAAAA [XGTACX_site2266] | 8.15 ± 0.69 |
| TATGTTATAAAATATATATTATAATATGTATATATA [XGTACX_negctrl_site233] | 7.68 ± 0.16 |
| AAAACTATTTCTTTCAGTACATATTTGGACTTATAT [XGTACX_site4977] | 7.59 ± 0.42 |
| ATAATAAGCAGACACACACACACAAAAAAAAAAAAA [CACACA_site6477] | 8.06 ± 0.52 |
| ATATAAATTTAATACACACCCAAAAAAAAAAAAAAA [CACACA_site3750] | 8.23 ± 0.46 |
| TAAATAAATACATACACACACATACAGATATATATA [CACACA_site5690] | 7.83 ± 0.7 |
| ATTAAAACACAATATTCACACATGTATATTATATAT [CACACA_site5191] | 7.72 ± 0.51 |
| TTAACATACACTCTAGTGCATATATATAACAAAATA [GTGCAC_site9724] | 10 ± 0.17 |
| AATTTAAATCTTCAAAGTACTAAAAAAAAAAATAAT [XGTACX_site8566] | 7.88 ± 0.57 |
| AAACGATTAATGTGTACACACATAGTTATAAACATA [CACACA_site7073] | 7.95 ± 0.23 |
| TTATAAAATATTTTTTGTACACATAATAGTAAGACT [XGTACX_site933] | 8.03 ± 0.54 |
| CACCCACACCAACACACACACATATATAATATATAT [CACACA_site595] | 8.27 ± 0.44 |
| CCATAATATTATAGACGTACGAATATATATAAAAGA [XGTACX_site7295] | 8.05 ± 0.44 |
| GATTATTTTATAAGTACACACATTTATCTATAATAA [CACACA_site7256] | 8.17 ± 0.21 |
| AATACATGCTTATTTTAACACACAAATGGTAGTAAT [CACACA_site8154] | 7.84 ± 0.63 |
| CTTATATTTAGACACACACACAATAAAATGAAAAAA [CACACA_site1031] | 8.1 ± 0.49 |
| AACCATGTTAACAACGCATGTATATCTATGGGTTTA [TGCATGCA_site419] | 7.57 ± 0.83 |
| GATTAATACACATTCTTCCGACATAATAAGAAAAAG [GTGCAC_negctrl_site7] | 8.04 ± 0.38 |
| TTTTTTAAATGTCATTGTACATAATTCAATATATAA [XGTACX_site5] | 7.92 ± 0.13 |
